These results are taken from PMC6919601, “Identification of Plasmodium dipeptidyl aminopeptidase allosteric inhibitors by high throughput screening” (PLoS ONE, 2019).

About 230 (0.21%) of roughly 110,000 compounds showed an effect of 50% or more. This is one part of the list.
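Further: 30 min substrate incubation versus DMSO and 10 µM JCP410 controls.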

The target of the experiment is DPAP1 (Plasmodium falciparum, UniProt Q8IIJ9). The experiment is described as follows: primary screen, percent inhibition; read by cleavage of a fluorogenic dipeptide substrate; higher = more effect of the substance. Details: species or system P. falciparum D10 trophozoite lysates; single well.
Chain of DPAP1 (Q8IIJ9 whole entry, looked up): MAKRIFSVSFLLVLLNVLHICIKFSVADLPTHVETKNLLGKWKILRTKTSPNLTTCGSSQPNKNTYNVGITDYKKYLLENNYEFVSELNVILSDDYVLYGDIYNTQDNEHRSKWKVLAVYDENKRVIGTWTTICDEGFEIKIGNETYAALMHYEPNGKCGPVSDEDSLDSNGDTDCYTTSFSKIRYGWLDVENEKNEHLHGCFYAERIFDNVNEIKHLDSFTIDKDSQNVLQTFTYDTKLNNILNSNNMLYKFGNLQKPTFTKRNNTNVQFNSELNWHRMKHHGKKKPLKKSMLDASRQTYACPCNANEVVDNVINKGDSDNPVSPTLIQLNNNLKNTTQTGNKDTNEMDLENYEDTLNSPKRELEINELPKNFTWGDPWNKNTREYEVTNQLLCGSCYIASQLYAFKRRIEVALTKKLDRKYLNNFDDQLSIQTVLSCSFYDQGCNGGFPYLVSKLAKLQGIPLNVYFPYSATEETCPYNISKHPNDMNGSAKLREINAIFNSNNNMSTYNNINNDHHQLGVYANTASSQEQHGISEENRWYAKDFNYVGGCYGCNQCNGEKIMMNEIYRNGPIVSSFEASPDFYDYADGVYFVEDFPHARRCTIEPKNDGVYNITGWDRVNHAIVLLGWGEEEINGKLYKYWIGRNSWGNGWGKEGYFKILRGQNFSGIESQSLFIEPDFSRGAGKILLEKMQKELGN
For `CCOC(=O)c1[nH]c2ccccc2c1NC(=O)C(C)C`, the “% Inhibition @ 10 uM” value was -4.23%.

For the molecule `Cc1oc(C)c2c(=O)cc(-c3ccc4c(c3)OCO4)cc(OC(=O)c3ccc(F)cc3)c12`, the “% Inhibition @ 10 uM” value amounted to 0.558%.

As to `COc1ccc(-c2cc(C(=O)NC3CC3)c3cc(C(C)C)ccc3n2)cc1`, the “% Inhibition @ 10 uM” value is given as 4.36%.

As for `CCS(=O)(=O)N1CCC(C(=O)NCCN2CCOCC2)CC1`, the “% Inhibition @ 10 uM” value was 3.79%.

Take `Cc1nc2nc(C)c(CCC(=O)NCCCOC(C)C)c(C)n2n1`: the “% Inhibition @ 10 uM” value was found to be 1.26%.

With `CCCCN(CC)CCNC(=O)C1c2ccccc2C(=O)N(CC(C)C)C1c1cccs1` (stereo not drawn), the “% Inhibition @ 10 uM” value was found to be 2.47%.

In the case of `COc1ccc(C2=N/C(=C\c3cc(OC)ccc3OC)C(=O)O2)cc1`, the “% Inhibition @ 10 uM” value is on record as -3.62%.

Turning to `CN(C)C(=O)CSc1nc2ccccc2c(=O)n1-c1ccccc1`, the “% Inhibition @ 10 uM” value was -0.736%.

Take `CCCNC(=O)C1CCN(c2nn3c(=O)cc(C)nc3s2)CC1`: the “% Inhibition @ 10 uM” value turned out to be 3%.

Regarding `Cc1ccc(C(=O)c2ccc(Br)s2)cc1`, the “% Inhibition @ 10 uM” value is given as -5.53%.

`COC(=O)c1c(NC(=O)c2ccc3c(c2)CC(c2ccccc2)OC3=O)sc(C)c1C` (stereo not drawn): the “% Inhibition @ 10 uM” value was found to be 3.81%.

As to `COCCCNC(=O)c1ccc(CSc2nc3ccncc3n2Cc2ccccc2C)cc1`, the “% Inhibition @ 10 uM” value was -0.23%.

In the case of `Cc1c(C(=O)Nc2cccc(F)c2)cnn1-c1ccccc1`, the “% Inhibition @ 10 uM” value was found to be 0.189%.

With `CCn1cc(/C=C(/C#N)C(=O)Nc2ccc(OC)cc2)c2ccccc21`, the “% Inhibition @ 10 uM” value is recorded as 0.392%.

Turning to `O=C(O)c1ccc(CNC(=O)c2ccc(Br)cc2)cc1`, the “% Inhibition @ 10 uM” value was -1.99%.

As for `Cc1ccc(-c2nc(C(=O)NC3CCCC3)c3n2CCCCC3)cc1`, the “% Inhibition @ 10 uM” value is recorded as -1.4%.

For `Cc1cc2c(cc1C)NC(CC(=O)Nc1ccccc1Cl)C(=O)N2` (stereo not drawn), the “% Inhibition @ 10 uM” value is on record as 14.1%.

Consider `CCN(CC)CCCNC(=O)C(C)n1nc(C)c2c(C)n(-c3ccccc3)nc2c1=O` (stereo not drawn), for which the “% Inhibition @ 10 uM” value is on record as -1.03%.

With `CCOC(=O)c1cnc2c(ccc3ccccc32)c1NCc1ccco1`, the “% Inhibition @ 10 uM” value is listed as -1.1%.

With `COc1ccc(Br)cc1CNC(=O)C(C)n1sc2ccccc2c1=O` (stereo not drawn), the “% Inhibition @ 10 uM” value is reported as -2.29%.

As to `Cc1cccc(NC(=O)CN2C(=O)C3C4CCC(C4)C3C2=O)c1` (stereo not drawn), the “% Inhibition @ 10 uM” value is given as 5.51%.

Consider `COc1ccc(-c2noc(-c3nnn(-c4ccccc4)c3N)n2)cc1`, for which the “% Inhibition @ 10 uM” value is recorded as -7.62%.

`O=C(NCc1ccccc1)C1CC(=O)N(C2CCCCCC2)C1` (stereo not drawn): the “% Inhibition @ 10 uM” value was determined as 2.05%.

`O=C(Cn1ncc2c3ccccc3nc-2c1O)NCC1CCCO1` (stereo not drawn): the “% Inhibition @ 10 uM” value is -1.71%.

As to `CNC(=O)C1CC(=O)N(CCc2ccc(OC)cc2)/C(=N/c2cccc(Cl)c2)S1` (stereo not drawn), the “% Inhibition @ 10 uM” value was found to be 3.86%.

Consider `CC(C)CCn1c(CN2CCN(C)CC2)nc2c1c(=O)n(C)c(=O)n2C`, for which the “% Inhibition @ 10 uM” value is reported as -1.43%.

For `NC(=O)c1cc(S(=O)(=O)N(CCCN2CCOCC2)Cc2ccco2)cs1`, the “% Inhibition @ 10 uM” value was -6.47%.
